No constants are given. Whether binding was seen depends on the method and setting. In cells and extracts the contact can be indirect. Some entries that bind do so weakly or less than the wild type. For part of these data: Where a sequence is shown, tags or fusion partners need not be part of it.
What was measured:
[1] = molecular target: HA-NS5A (HCV JFH-1 nonstructural protein 5A), full-length NS5A (HCV genotype 2a, strain JFH-1) (UniProt Q99IB8); assay: co-IP; HEK293T cells co-transfected (calcium phosphate, 36 h); lysate incubated with the indicated tag antibody or control IgG, then protein A/G agarose; washed with 15 mM Tris pH 7.5, 500 mM NaCl, 2 mM EDTA, 0.5% Triton X-100; western blot
[2] = molecular target: T1, endogenous SPSB2 (human (endogenous in Huh7.5.1)) (UniProt Q99619); assay: co-IP; endogenous: Huh7.5.1 cells infected with HCV JFH-1 for 96 h; lysate immunoprecipitated with mouse anti-SPSB2 MAb or control mouse IgG; western blot with anti-NS5A and anti-SPSB2
T1 sequence: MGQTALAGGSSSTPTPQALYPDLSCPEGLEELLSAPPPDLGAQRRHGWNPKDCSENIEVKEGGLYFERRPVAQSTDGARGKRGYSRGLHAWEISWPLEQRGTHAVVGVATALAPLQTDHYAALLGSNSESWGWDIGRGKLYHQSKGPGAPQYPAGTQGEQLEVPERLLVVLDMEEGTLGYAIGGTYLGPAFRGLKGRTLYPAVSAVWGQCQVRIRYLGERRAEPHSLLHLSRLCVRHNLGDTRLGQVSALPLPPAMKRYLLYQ

Chains of the proteins cited; added tags and fusions are not shown. A line that says so, or that is headed by a name, gives the form on record, which may keep a tag or linker. Residues count along the entry.
GFP-E1 (HCV JFH-1 envelope protein E1 fused to green fluorescent protein) (Q99IB8, residues 192-383): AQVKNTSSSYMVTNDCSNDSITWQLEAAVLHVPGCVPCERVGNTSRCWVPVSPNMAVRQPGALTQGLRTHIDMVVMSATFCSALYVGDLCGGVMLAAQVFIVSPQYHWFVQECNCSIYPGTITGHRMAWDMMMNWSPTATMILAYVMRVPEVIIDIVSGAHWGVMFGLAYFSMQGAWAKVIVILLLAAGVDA
HA-NS5A (HCV JFH-1 nonstructural protein 5A), full-length NS5A (Q99IB8, residues 1977-2442): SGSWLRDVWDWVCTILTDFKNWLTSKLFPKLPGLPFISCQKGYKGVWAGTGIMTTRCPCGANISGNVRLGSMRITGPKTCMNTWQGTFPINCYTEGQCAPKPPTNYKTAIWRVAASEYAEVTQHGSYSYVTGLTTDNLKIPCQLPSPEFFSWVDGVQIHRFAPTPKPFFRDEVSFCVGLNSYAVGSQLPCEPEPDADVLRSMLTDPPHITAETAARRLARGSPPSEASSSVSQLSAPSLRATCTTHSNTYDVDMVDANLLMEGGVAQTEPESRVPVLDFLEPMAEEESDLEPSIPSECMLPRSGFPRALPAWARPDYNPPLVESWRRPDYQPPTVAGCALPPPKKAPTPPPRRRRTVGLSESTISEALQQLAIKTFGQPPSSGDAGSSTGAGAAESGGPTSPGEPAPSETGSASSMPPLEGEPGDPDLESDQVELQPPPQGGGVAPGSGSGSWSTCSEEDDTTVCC
UniProt Q6PJ21: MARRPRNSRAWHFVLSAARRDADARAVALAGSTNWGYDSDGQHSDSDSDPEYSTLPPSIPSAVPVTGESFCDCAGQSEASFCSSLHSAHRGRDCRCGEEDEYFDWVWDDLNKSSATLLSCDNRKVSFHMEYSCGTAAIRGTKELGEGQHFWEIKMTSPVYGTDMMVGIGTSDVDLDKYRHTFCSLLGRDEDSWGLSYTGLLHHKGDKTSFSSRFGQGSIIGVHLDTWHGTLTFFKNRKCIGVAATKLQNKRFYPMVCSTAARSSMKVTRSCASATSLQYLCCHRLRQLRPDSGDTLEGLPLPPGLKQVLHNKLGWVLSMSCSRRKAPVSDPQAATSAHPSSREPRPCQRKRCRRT

[3] = molecular target: Flag-E1 (HCV JFH-1 E1), full-length E1 (HCV genotype 2a, strain JFH-1) (UniProt Q99IB8); assay: co-IP; Huh7 cells co-transfected for 48 h; lysate immunoprecipitated with anti-HA, anti-Flag or anti-Myc antibody; western blot
[4] = molecular target: HA-NS5A (HCV JFH-1 nonstructural protein 5A), full-length NS5A (HCV genotype 2a, strain JFH-1) (UniProt Q99IB8); assay: as above
[5] = molecular target: GFP-NS5A (HCV JFH-1 nonstructural protein 5A fused to green fluorescent protein) (HCV genotype 2a, strain JFH-1) (UniProt Q99IB8); assay: co-IP; HEK293T cells co-transfected (calcium phosphate, 36 h); lysate incubated with the indicated tag antibody or control IgG, then protein A/G agarose; washed with 15 mM Tris pH 7.5, 500 mM NaCl, 2 mM EDTA, 0.5% Triton X-100; western blot
[6] = molecular target: Flag-E1 (HCV JFH-1 E1), full-length E1 (HCV genotype 2a, strain JFH-1) (UniProt Q99IB8); assay: as above
[7] = molecular target: HA-NS5A (HCV JFH-1 nonstructural protein 5A), full-length NS5A (HCV genotype 2a, strain JFH-1) (UniProt Q99IB8); assay: as above; remark: listed apart in the source
[8] = molecular target: GFP-E1 (HCV JFH-1 envelope protein E1 fused to green fluorescent protein) (HCV genotype 2a, strain JFH-1) (UniProt Q99IB8); assay: as above

SPSB2-SPRYD1 (1-122aa), N-terminal portion of SPSB2 (from UniProt Q99619 1-122) (domain or fragment)
binding [1]: no binding

SPSB2-SPRYD2 (123-221aa), C-terminal portion of the SPSB2 SPRY domain (from UniProt Q99619 123-221) (domain or fragment)
binding [1]: binds

NS5A made by HCV JFH-1 infection (from UniProt Q99IB8 1977-2442)
binding [2]: binds

Myc-SPSB3 (from UniProt Q6PJ21 1-355)
binding [1]: binds

SPSB2-DSPRYD1 (123-263aa) (from UniProt Q99619 123-263) (domain or fragment)
binding [1]: binds

B1: Myc-SPSB2 (SPRY domain- and SOCS box-containing protein 2), full-length (protein, UniProt Q99619 1-263)
chain: MGQTALAGGSSSTPTPQALYPDLSCPEGLEELLSAPPPDLGAQRRHGWNPKDCSENIEVKEGGLYFERRPVAQSTDGARGKRGYSRGLHAWEISWPLEQRGTHAVVGVATALAPLQTDHYAALLGSNSESWGWDIGRGKLYHQSKGPGAPQYPAGTQGEQLEVPERLLVVLDMEEGTLGYAIGGTYLGPAFRGLKGRTLYPAVSAVWGQCQVRIRYLGERRAEPHSLLHLSRLCVRHNLGDTRLGQVSALPLPPAMKRYLLYQ
binding [3]: binds
binding [4]: binds
binding [5]: binds
binding [6]: binds
binding [7]: binds
binding [8]: binds

B2: Myc-SPSB4 (protein, UniProt Q96A44 1-273)
chain: MGQKLSGSLKSVEVREPALRPAKRELRGAEPGRPARLDQLLDMPAAGLAVQLRHAWNPEDRSLNVFVKDDDRLTFHRHPVAQSTDGIRGKVGHARGLHAWQINWPARQRGTHAVVGVATARAPLHSVGYTALVGSDAESWGWDLGRSRLYHDGKNQPGVAYPAFLGPDEAFALPDSLLVVLDMDEGTLSFIVDGQYLGVAFRGLKGKKLYPVVSAVWGHCEVTMRYINGLDPEPLPLMDLCRRSIRSALGRQRLQDISSLPLPQSLKNYLQYQ
binding [7]: binds
